Measurements reported in US20090325873A1, “HUMAN GLP-1 MIMETIBODIES, COMPOSITIONS, METHODS AND USES” (CENTOCOR, INC., priority 2006, published 2009).

Columns and labels:
Format in all cases: in vivo
[1] = Pharmacokinetics in cynomolgus monkeys, single iv dose; settings: 1 mg/kg, mean
Procedure: Pharmacokinetics in monkeys: Cynomolgus monkeys were dosed intravenously with GLP-1MMB of SEQ ID NO 4 (1.0 mg/kg, lot #8833013) at Diabetes Research Institute, University of Miami (2). The monkeys were chemically restrained with ketamine HCl (100 mg/mL, 10 mg/kg) prior to dosing and blood collections. GLP-1MMB of SEQ ID NO 4 was administered at a dose volume of 2.2 mL/kg at a rate of 1 mL/minute. Approximately 2 mL of blood was collected at various time points following dosing in sodium citrate (3.8%) containing protease inhibitors (Roche Complete EDTA free, Roche Applied Science, Indianapolis, Ind.) and DPP4 inhibitors (Linco, St. Charles, Mo.). Plasma was isolated and stored at −80° until samples could be analyzed. GLP-1MMB of SEQ ID NO 4 concentrations in the plasma was measured as described above.
Data analysis: Non-compartmental analysis (NCA) was employed to calculate the pharmacokinetic parameters of GLP-1MMB of SEQ ID NO 4 (WinNonlin, Version 5.1, Pharsight Corporation, Mountain View, Calif.). The maximum serum concentration, Cmax and the time to reach Cmax (Tmax), were obtained from inspection of the serum concentration vs. time profiles. The area under the concentration curve (AUC) from time 0 to the last time point with quantifiable levels of GLP-1MMB of SEQ ID NO 4 was calculated (AUC (0-7d) for rat, AUC (0-21d) for monkey), as well as the AUC from time 0 to infinity. The AUC values were obtained by linear trapezoidal integration. The terminal rate constant (λz) was determined by least-squares regression analysis of the log-linear portion of the terminal phase. The terminal half-life, t½, was calculated from the ratio of 0.693 and λz.

[2] = tested on: diet-induced obese (DIO) C57B1/6J mice; assay: ipGTT in diet-induced obese (DIO) mice, acute pharmacodynamic study; settings: for ED50 (AUC of ipGTT fit to a hyperbola): DIO mice, i.v.
Procedure: Materials/Methods: D-glucose was purchased from Sigma. The studies described below used diet-induced obese (DIO) C57B1/6J mice that were started on a diet containing 60.9% fat (Purina TestDiets 58126) at 4 weeks of age. All animals achieved three consecutive weeks of diabetic fasting blood glucose values (>120 mg/dL) prior to their inclusion in the study. ipGTT: Thirty-five mice were fasted overnight (16 hr) and were randomized into 7 groups (n=5) based upon their fasting glucose concentrations. Ten minutes prior to the glucose tolerance test, mice were dosed i.v. with PBS or GLP1 MMB of SEQ ID NO 4 (0.003, 0.01, 0.03, 0.1, 0.3, and 1.0 mg/kg). Five minutes prior to the glucose tolerance test, a fasting glucose measurement was made from tail vein blood. At T=0 min, mice were dosed i.p. with D-glucose (1.0 mg/g). Blood glucose levels were measured at 15, 30, 60, 90, 120, 150 and 180 min using tail vein blood.

wild type mice = assay: Food intake in wild type mice; settings: single iv GLP-1 MMB 1 mg/kg, exendin-4 0.07 mg/kg
GLP-1R−/− mice = assay: Food intake in GLP-1R−/− mice; settings: single iv GLP-1 MMB 1 mg/kg, exendin-4 0.07 mg/kg
DIO mice = assay: Correlation of pharmacodynamic activity (ipGTT) with plasma levels in DIO mice; settings: single iv 1 mg/kg
Procedure: Materials/Methods. Animals/Treatments: C57B1/6J mice were started at 4 weeks of age on a diet containing 60.9% fat (Purina TestDiets 58126). At the time of the study start, all of the animals had achieved three consecutive weeks of diabetic fasting blood glucose values (>120 mg/dL). DIO mice were randomized into treatment groups based on fasting blood glucose and were dosed (iv) with GLP-1 MMB of SEQ ID NO 4 (1 mg/kg, lot #8833173)) or PBS. At various time post-dosing, glucose tolerance tests were performed and blood samples were collected to measure GLP-1 MMB of SEQ ID NO 4 plasma levels as described below. Glucose tolerance test (ipGTT): Mice were fasted overnight (16 hr) before the test. In the morning a fasting glucose was measured via tail snips using a hand-held glucometer (LifeScan). […] Blood glucose was measured after 15, 30, 60, 90 and 120 min using tail vein blood. […] The concentration of intact GLP-1 MMB of SEQ ID NO 4 was measured using a mesoscale discovery (MSD) technology. […] A ruthenium labeled monoclonal antibody recognizing the linker region of the mimetibody (CNTO712) was added for detection, and the luminescence responses were determined using the MSD sector imager 6000 reader. GLP-1 MMB of SEQ ID NO 4 level was calculated using sigmoidal dose-response curve (GraphPad PRISM). […] The area under the curve (AUC) was calculated for each individual ipGTT curve (FIG. 26). […]

B1: GLP-1 MMB of SEQ ID NO 4: GLP-1 mimetibody of SEQ ID NO 4 (protein, listed as Homo sapiens)
chain: HSEGTFTSDVSSYLEGQAAKEFIEWLVKGRGGGSGGGSGTLVTNSS[human IgG4 Fc with S228P F234A L235A (EU numbers) omitted]
- AUC(0-21) [1]: 41.92 µg·days/mL
- AUCinf [1]: 42.05 µg·days/mL
- Cl [1]: 1.034 mL/h/kg
- Cmax [1]: 40090 ng/mL
- Vss [1]: 0.05018 L/kg
- Vz [1]: 0.1054 L/kg
- t½ ([1]; listed as GLP-1MMB): 69.6 h
- t½ ([1]; listed as GLP-1MMB of SEQ ID NO 4, 1 mg/kg): 70.3 h
- area under the curve of the ipGTT relative to the PBS-treated group ([2]; 0.01, 0.03, 0.1, 0.3, 1 mg/kg i.v. ten minutes prior to the test): significantly reduced in a dose dependent manner
- ED50 (AUC of ipGTT fit to a hyperbola) [2]: 0.014 mg/kg
- ED50 (AUC of ipGTT fit to a hyperbola) ([2]; listed as GLP-1MMB): 0.015 mg/kg
- 24 hour cumulative food intake vs CNTO1996 (wild type mice): statistically significant reduction in food intake
- 24 hour cumulative food intake (GLP-1R−/− mice): no effect on food intake
- time post injection with statistically significant reduction in the ipGTT AUC relative to the negative control (DIO mice): up to 6 days
